# The list shows a part of the results. At the low end of the ranking the order means little. Measured with an extract: partners may take part in the binding.
# Target: T1, HNF4alpha8 (COS-7 nuclear extract) (UniProt P41235-5)
# T1 sequence: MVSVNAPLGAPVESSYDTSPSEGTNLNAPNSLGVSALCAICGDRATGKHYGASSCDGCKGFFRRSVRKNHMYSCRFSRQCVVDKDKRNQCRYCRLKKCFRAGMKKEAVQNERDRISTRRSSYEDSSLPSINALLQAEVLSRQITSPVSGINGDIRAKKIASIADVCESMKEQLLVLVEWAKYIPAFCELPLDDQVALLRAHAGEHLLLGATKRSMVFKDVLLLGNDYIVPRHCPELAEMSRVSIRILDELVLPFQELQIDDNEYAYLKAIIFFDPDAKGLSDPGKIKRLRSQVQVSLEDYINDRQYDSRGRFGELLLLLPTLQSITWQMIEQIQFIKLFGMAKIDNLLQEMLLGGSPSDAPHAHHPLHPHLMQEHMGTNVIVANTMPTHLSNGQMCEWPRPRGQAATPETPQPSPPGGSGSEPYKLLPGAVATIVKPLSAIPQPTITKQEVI
# Experiment: protein-binding microarray
# Conditions: COS-7 nuclear extract on double-stranded Agilent 4x180k PBM; binding buffer, salt, pH and temperature not given; high values mean tight binding; double strand, one strand shown; sequences stand for … in …GCCTAGGGAGATTAGAGTATCGGTCGA
row,Sequence,binding signal (log2 normalized intensity)
1,AGAGCTCCAGAAGAAAGGGGAGATAATGCC,-1.29
2,ATCTGACCAAGTGAACTGTGACCTGATGAC,3.91
3,TACAGGCAAGAGAATCAGAGAGATACTGAA,-1.18
4,GGGGGCTGTTTATGGGTTAACAGAATGAAC,1.49
5,GAAACATTTTACAACCTACTCTTTCTCTGA,-1.42
6,TCAGATTGCCTAAAGGGGATTTTCTCAGCT,-1.31
7,AAAGCAGTGAGTGAAACATCCCACTCAAAG,-1.22
8,ACACAAACTATGACCTTTGAAACTTACATT,6.68
9,GGGTTATGGAGAGTGGAAGACTGCACCAAA,-1.39
10,GTCCAGAGTTTAAATGACCTCTGCCCTTCC,7.43
11,TAAGAAATGAATGTCACTTTCTGACTGGCC,0.556
12,ATCTACCATTAGTCTCCAATATATTTGCCT,0.00427
13,TAATCTGATCGCCCTCCCCCAGAGAGAACA,5.05
14,GTGCAGCTGCTGAAACATTCAACTGACACT,-1.42
15,AGTCCACAGTCCAGTGACTATCTGCTACTT,-0.899
16,GGCTGGAGCAGGCCATGTGCAGAGGAGGGG,-1.21
17,GAGTCCAGTGGGGGAGAGGGAGAATAAGGG,-1.38
18,CTTGTTTGTGTAACTGTGGGTTCTAGGTAA,1.62
19,TCTGCTTTCAAAGCTCCAGTTCCAGGGATG,-1.35
20,GCGGTAAAGAAGCCAGCCAAATCCCACCAA,2.27
21,GCCAAGGACCGCCAAGGAAGCGATGGGCTG,-1.31
22,GGCCTTATAGGGCATACCCTTCCTGCTGAC,-1.26
23,CCGCAGTGGGAGAGCAAGGGTCAAGGGTCA,7.52
24,ACTAATGCATTCCCAGCAAGTGAAGAGGAA,-1.41
25,TATCTAAAAGCTTATCTGCACAATGAAACT,-1.43

row,Sequence,binding signal (log2 normalized intensity)
1,TGTGTTGGCACTTTGGACTTGAGAAGACAT,4.01
2,GAACCTGTGTTTCCTGGATTGTGAAACACA,0.783
3,CAATCAGCAGCAAAGTCCTGGAAGAAACCC,-1.25
4,GAATGGACTCTGAGACCTGTGATGGTCACT,1.83
5,CACACCTCCAGCCACCCTGAAGGCTGAGCC,-1.31
6,AGTAGCAGTTCAAAAGTTCAAAGATATGAT,1.64
7,TCAGGCCATTTCACCTTTGCCCTGTCAGTC,6.79
8,AACAAATAAAGTGGATGGAGCAATTCAACA,-0.882
9,TTCTGATCTTTGACCTCTCCAGGGTCCTTG,5.35
10,GACCTGGCATATCTCTGTCCCTGATACCAT,0.0233
11,CTTCCCCCATCCCCAACAAAGCTCTGCATC,4.72
12,CATGGGTCTCTTCCTCAGTTTGTTCTTGGG,1.61
13,AATGCTATGCTTTTATTTAACTTCTGGGGG,-0.243
14,CAAGTAAATTCCGGGGCTGGAATTTGAACC,5.93
15,CTCCCCTCCTCCAGATGGGCTCATGTAACA,2.65
16,TTGCCACTAGGGGTCACTGTCACATGTCCA,3.07
17,CAAACGAGACTTTGGACTTTGGACTTGGGA,10.9
18,ATTCCAAGAAGAGCCAATAGTACACATCAA,-1.32
19,AGTTTGTCTGATCTTCCTGAGGAGAGCAAA,-1.18
20,TTGTGTAACATCTAAGATTGGCCCTGATAA,1.08
21,CCTCCCCATTGTAGATTCAATAATACAAGA,1.11
22,CCAGAGAAATAGTGAGACAGACATGCGACA,-1.37
23,TTGTTTGTGTTTCCCTCCCTGGTATGTACT,2.75
24,GAACAAGTATCCTGGTAGTGCGACAAGAAT,0.149
25,ATTCTACTGCCATTGATAATTCAGTTTCAT,-0.495

row,Sequence,binding signal (log2 normalized intensity)
1,TGTTGCGTAATACAAAGGCAGCCATTGACG,-1.29
2,TCGCTCCGCCGCTAGGTGGCGGGCTGGCTC,-1.42
3,TAAACAGCTGACAATAAATTCCAGGCTGCC,-1.26
4,ACACATAAACCCTGACCCTCAAGGGTCTCC,1.78
5,AAGTACAGAGATGGCACAGAGGAGGGACGA,-1.35
6,CCTTTTGAAGAAACCAACCCTGCCAAAGGT,1.45
7,CTGGGTATTTCAAGAATGCAAAGCCCTGGC,-1.01
8,TTTCATTGGAAAGGCAGAGGAAAGCCCTAG,-1.27
9,TGGGTGTCAGGGTTCTCAGACCACCAGCTG,-1.4
10,ACAAGAGGCAAAGGCCACAGCTCAGATCAC,-1.28
11,AGGGGTAGAAGCTGAGCAGCAATCAGCTCC,-1.24
12,CCCAGGCAATCTTCCAGTCCACAGTCCAGT,2.1
13,AGGCAGGGACTGAGGAATCTGGCTGTGCTG,-1.3
14,AGAACAGTCTGTGACTTGATCTTTGACTGG,4.27
15,TGAAATCTAATCTCTGTAACATTCCTAGAT,-1.44
16,CTGAGAGAGCAGGGCCCGAGGCCTTGAGCA,-1.4
17,TTTCAAGGTGACCCCACGGAGCTGCCTCAC,2.75
18,GCATTTCACAATAGGGTTCAAACTCCTATG,2.89
19,TAATCTGACTTGACAGGTTTCTTGCTGAAG,-1.35
20,TCTAATCTCTGTAACATTCCTAGATATCAG,-0.796
21,TAAGCAATCCCTTAGGCTTTTGCACTTTAC,3.39
22,ATCACACTACTGGCTTTTCTGGTTCTCCAG,-1.44
23,TTCAGGCAGGAATGCTGAACAATTGATTTA,-0.858
24,ACACTGACATCATCGCAGAAAGCTCTTTGC,-1.25
25,TAGAATGACCCCCTGGGCTCCAATCAGGAG,3.28

row,Sequence,binding signal (log2 normalized intensity)
1,ATGAAAGTATCCAGCTCCTCTTCACACCAT,-1.1
2,TTAAGTGGTTCACAAACATTCCAGTGGTCC,1.26
3,TGTGTGTGTGTCTGTAGTTTTCGTTGTCTA,2.21
4,GGCCGGGGTGGTGGTTACCGGCAGAGGCTG,-0.249
5,CATTGTGTTAAAGGAATTCAGGACTTGGTA,0.455
6,GCTGTCAGCCACCAAAGCAGCTAGCAAATA,-1.35
7,GTTATCTAATGGAGAGGATGGGGACAAAGG,2.55
8,TAGTAGCCCTTTGTATCTTTTAAGATACAC,1.04
9,AGGGGTCACCTCGCTCCCCTCCTGTCAGTT,1.87
10,TCAGCTGGGCTCGGCGCTCCGCTTACTCGG,-1.25
11,AAGACAGGGGCTATTTCTGACCTTTGCACC,10.2
12,GACCCCCTACATAGAGAGCAGTCTTGAGCG,1.99
13,CAAGTCCAGCGAGGTTATTTCACCCCAGCA,1.89
14,TACATGGCCTGCATGACTACATTCTTTGAA,-0.459
15,AACTCTATCATACTCAGCTAATCTAGAGAC,-1.33
16,TGTATTTCGGGGCACTGCTCCCTGCCCCTA,3.09
17,CAAGGTGGTGAAGATGTCCTGTAGAAAGCG,-1.28
18,GTTTTGTAAACTCCCTTTGATGCGGTCAGA,1.37
19,TCCTTATCCTCATTGTGTGCAGACCTTCTC,1.94
20,GGCTGATAAGACACATTCCATGCTTATCAG,-1.16
21,ACTGAGATGGGAGCAGTGCTCAGATAAGAT,-1.27
22,CGCTGGACTCTGCTCCTAAGGCAGGATTGG,2.01
23,CCTTCCGACCACTGGCTGAACAGGGTCAGT,2.71
24,AGTTAACTCACACACCCCAAAAGGTCAATC,4.56
25,ATATGAACTTTGGAAATGCAAACACCTACA,-1.08

row,Sequence,binding signal (log2 normalized intensity)
1,TGGCACCTGAAGCTGCCCTTTGCACATGCC,5.02
2,CACTTACAAGTGTACAAAGGTCACTTCTGT,7.03
3,TGAGGTCGGGGCCTGGTCTGCACTCCAGGA,-1.38
4,AAAGGACATTGTCCATCACCTGGCTCTGAA,-1.18
5,GATGGAGATGGCCTGGAGGTACCTAGGGGA,-1.51
6,TCCTAGGGTTAAAGTCTACAACCAGAACTT,3.36
7,CTTTGCTCTCTGAAATGAAGGTCAGCAAAT,1.05
8,CCTGTCAGTTTATTTACTGTCCTCAAACTG,0.601
9,GCCTGGGGTAAAACCAAACTGCAGCTGCTG,-1.14
10,AAGTTCAGTGAGATTAGGAAGTGTGCACAA,0.32
11,AGCCCCTTTGTCCATTATCTCACTTATTTG,1.36
12,TAAACCAGCCTAACAGGATTTTTGCTGAAG,-1.28
13,AGAAGCCTCTGGACAAGGGAAGCGTCAATG,-1.37
14,GAACCAAGATCTGTGAAAGAAAAGTACTTT,1.75
15,GGCAAAGGGCATGGGCAGCTTTGAAGACTC,-1.5
16,GGGCACCGCCTCCACACCCCAGCCTGCCCT,2.63
17,TTACTTTTGTACACACAGCACTGCAAACAG,-1.37
18,ATCAATCAATTTACCTCTGCTCCCCCTGCC,4.41
19,AACTGAGGAGGACATACTCCTACCACCAAA,-1.43
20,GTGTCCCTCTTATACTCTCTCTCTCTCGTT,0.592
21,CAAAGTACAGTAATTTCACTGATATGGTGA,1.48
22,TCCTTGACCCTGAAAACAGGGCAAGGAACG,1.3
23,GGATTGATAGACTTATCTCAGCCTGGCTAA,-1.3
24,TCTTTCTCCCAGAGGTCGATCTGATCTTAA,2.09
25,AATGGAGGAGTTCAGCAGCATCTAAACTCT,-1.37

row,Sequence,binding signal (log2 normalized intensity)
1,CAAGGACTCTAAAGGGAATAACCTTTGAGC,6.76
2,TATGACAACAAAGCATTATCTACACAGTAA,-1.32
3,AGTTCCCATTTGCGCTGGTTTTATGGTGTC,1.94
4,ATGTGCCAGACACTGCTCTAGGCATTGGAG,-1.35
5,GCTTGGGAGCAGTCCTTGGGGAAGGGGTAC,-0.338
6,CAAGGACTTTGAAGGCCCCAATTGCCAAGG,-1.3
7,TGAGTGTTTGACCTTTCACCCAGAAAAGGC,6.35
8,GTTGCACCTCTTATCAAGCGTGCACCCCAG,2.15
9,TTGTGTAAGTGTGGGTTTAAGTAAGCCCCC,4.14
10,TGGTTTGCCTCTCTTAGGTGACAGCCTTTT,1.22
11,AGCGGCCATTTACTGACTAAAGGTTAAACA,2.37
12,TGCCTTTGATGTTTCAGCCCTAAAGACCAC,-0.436
13,TCCCTCCCAGTACAAAGTTCACTTTCTTGT,5.45
14,AGTTTACTTCATCTAAGTGGGTCTAGGTTC,1.84
15,AGATCATCCTGCAGTTCCTGATCTTTGACC,7.84
16,CTCAGATCACAAAAGATGGAACAAGCCAGG,-1.34
17,TATCCCTGGAGCCTTAGAAGATGACCTTTT,6.37
18,AAAACAGCAGAGCACGATGAATAGGGACGT,-1.31
19,CTTTATCTAAGTAAACTAGTGATGTGGAAA,0.92
20,ACCTGGAGCCCTTAGGGTCAATGGGACATT,3.33

# Source: paper PMC10726135
